Laboratory results as given in PubChem BioAssay AID652104 (National Center for Advancing Translational Sciences (NCATS), 2013).
Screen size: about 410,000 compounds; about 7,200 (1.8%) were called active. This list was built around the results that the source calls inconclusive (neither active nor inactive); the mix of calls is not that of the screen. Calls come from the whole dose curve; as a rule, active = well fitted activation curve with a large enough effect; inconclusive = small, poorly fitted or top-dose-only effect, or another doubt; inactive = no such curve, though single readings can be large or run the other way. A potency beside an inconclusive call is a rough fit, not a confirmed value.

Test: qHTS of TDP-43 Inhibitors; note: nearly all actives have a fitted effect of over 50% in size
Conditions: TDP-43 expressing yeast growth rescue, BacTiter-Glo, 24 h; series mostly up to 46.1 µM
Procedure, shortened: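 Yeast cells expressing TDP-43 under galactose induction are exposed to compounds for 24 hr at 30 deg C. BacTiter-Glo luminescence measures growth, so protective compounds score as activators.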
Potency is the fitted concentration of half-maximal effect; tags give direction and shape of the fitted curve.

Potency, inconclusive:
Cn1c2ccc(F)cc2c2ncn(CCN3CCOCC3)c(=O)c21 1.78 µM [activator, partial curve]
Cc1ccc(S(=O)(=O)n2c(C)nc3ccccc32)cc1 20 µM [activator, single point]
Nc1nonc1-c1noc(CCCOc2ccc(Cl)cc2Cl)n1 3.98 µM [activator, full curve, poor fit]
CC(=O)C1=C(C)Nc2ncnn2C1c1cccc(OCc2ccccc2)c1 (stereo not drawn) 12.6 µM [activator, partial curve, poor fit]
N#Cc1c(N)sc(=S)c2c1CCCC2 12.6 µM [activator, single point]
N#Cc1ccc(S(=O)(=O)NC[C@H]2O[C@@H](n3ccc(N)nc3=O)[C@H](O)[C@@H]2O)cc1 3.16 µM [activator, full curve, poor fit]
c1ccc(-c2nnc3sc(Cc4cccs4)nn23)cc1 14.1 µM [activator, partial curve, poor fit]
Clc1cc(Cl)c2nc(N3CCCCC3)sc2c1 14.1 µM [activator, single point]
Cc1cc(C)c2c(N)c(C(=O)N3CCc4ccccc4C3)sc2n1 17.8 µM [activator, single point]
O=C(C(=O)N1CCN(c2ccccc2F)CC1)c1ccccc1 8.91 µM [activator, full curve]
COc1ccc(/C=N/NC(=O)CNC(=O)c2ccc(S(=O)(=O)N3CCOCC3)cc2)c(OC)c1 11.2 µM [activator, partial curve]
O=C(c1cccc(Cl)c1)N1CCN(S(=O)(=O)c2ccc(Cl)s2)CC1 25.1 µM [activator, partial curve]
CC(C)CN(CC(C)C)C(=O)c1cccc(S(=O)(=O)N2CCc3ccccc32)c1 31.6 µM [activator, single point]
O=C(c1ccco1)N1CCC(c2nc(-c3ccccc3Cl)no2)CC1 15.8 µM [activator, single point]
CCCCn1c(NC(=O)c2ccccc2)nc2ccccc21 11.2 µM [activator, partial curve]
Clc1ccccc1N1CCN(c2ncnc3nc[nH]c23)CC1 3.55 µM [activator, partial curve]
O=C(Nc1ccccn1)c1ccc(-c2ccccc2)cc1 1.41 µM [activator, partial curve]
CC(=O)c1cccc(-c2ccnc3c2CC(C(=O)NCc2ccncc2)O3)c1 (stereo not drawn) 3.98 µM [activator, full curve, poor fit]
CCCCCCC(=O)Nc1ccc2nc3c(=O)n(C)c(=O)n(C)c3nc2c1C 0.316 µM [activator, full curve]
O=c1c2[nH]c3ccccc3c2ncn1C1CCCCC1 6.31 µM [activator, single point]
Oc1ccc(N=Nc2nccs2)c(O)c1 31.6 µM [activator, single point]
CC(=O)Oc1ccc(/C=C2/Oc3ccccc3C2=O)cc1 35.5 µM [activator, partial curve]
CCOC(=O)C1CCN(C(=O)c2ccccc2NC(=O)c2nsc3ccccc23)CC1 35.5 µM [activator, single point]
O=C(COC(=O)c1ccccc1Br)Nc1ccc(F)cc1 22.4 µM [activator, partial curve]
COc1cccc(-c2c(C#N)c(N)nc3c2c(C)nn3-c2ccccc2)c1O 20 µM [activator, single point]
CCCn1c(N)c(N(CCOC)C(=O)c2cccc(F)c2)c(=O)[nH]c1=O 5.01 µM [activator, single point]

Potency, inactive:
CCCN(C(=O)c1cc(S(=O)(=O)N2CCc3ccccc32)cn1C)c1ccc(OCC)cc1
NC(CCc1ccccc1)c1csc(NC(=O)Nc2ccccc2Oc2ccccc2)n1 (stereo not drawn)
CC(=O)c1cccc(NC(=O)CCCSc2ccccc2)c1
O=C(Oc1ccc(Cl)cc1)c1ccc(N2CCOCC2)c([N+](=O)[O-])c1
CC(=NNC(=S)N1CCCCC1)c1ccccn1
CCN(CC)C(=O)Cn1c(=O)n(CCCCCC(=O)NCc2ccc3c(c2)OCO3)c(=O)c2sccc21
COc1ccccc1-c1cc(NC=O)c2ncc(-c3ccc(S(C)(=O)=O)cc3)n2c1
COc1ccccc1CCNC(=O)Cc1c(C)c2cc(Cl)c(O)cc2oc1=O
Cc1c(C(=O)N2CCN(S(C)(=O)=O)CC2)oc2ccccc12
C/C(=N\n1c(C)cc(C)c(C#N)c1=O)c1cccs1
CCN1C(=O)c2ccccc2S(=O)(=O)c2ccc(C(=O)NCc3ccccc3)cc21

Potency, active:
C/C(=N\Nc1cc(C)nc(-c2ccccc2O)n1)c1ccccc1O 11.2 µM
O=C(O)/C=C/c1ccc2c(c1)OCCO2 15.8 µM
c1ccc(Cn2c(-c3cncs3)nc3ccccc32)cc1 7.94 µM
COc1ccc(-c2nnc(-c3cccnc3)o2)cc1 22.4 µM
Cc1ccc(N(CC(=O)N2CCN(c3cc(C)ccc3C)CC2)S(=O)(=O)c2c(C)nn(C)c2C)cc1 35.5 µM
COc1ccc(Br)c(C(=O)N2CCN(S(=O)(=O)/C=C/c3ccccc3)CC2)c1 12.6 µM
Cc1cc(Cl)ccc1-n1c(CCC(=O)O)ccc1-c1cccs1 22.4 µM
CC1(C(=O)NS(=O)(=O)c2ccc(Cl)cc2)CCN1C(=O)C1(c2ccc(Cl)cc2)CCC1 (stereo not drawn) 20 µM
Cc1ccc(O)c(C(=O)/C=C/c2ccc3c(c2)OCCCO3)c1 14.1 µM
Cc1ccc(N(C)C(=O)c2sc3nc4n(c(=O)c3c2C)CCCC4)cc1C 15.8 µM
COc1ccc(CC(=O)Nc2cccc(SC)c2)cc1 12.6 µM
